The list shows a part of the results.
Molecular target: T1, MBP-FoxP1dN (Mus musculus, UniProt P58462 326-579)
T1 sequence: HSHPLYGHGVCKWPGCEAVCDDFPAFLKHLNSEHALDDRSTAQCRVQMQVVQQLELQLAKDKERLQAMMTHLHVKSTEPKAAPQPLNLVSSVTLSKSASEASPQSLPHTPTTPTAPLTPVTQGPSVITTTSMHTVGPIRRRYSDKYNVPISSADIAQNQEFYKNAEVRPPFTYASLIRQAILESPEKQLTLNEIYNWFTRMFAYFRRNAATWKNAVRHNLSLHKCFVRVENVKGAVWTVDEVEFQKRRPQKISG
Assay: PD-seq (MBP pull-down with sequencing); 20 mM Tris-HCl pH 7.5, 100 mM NaCl, 1.5 mM MgCl2, 0.4 uM protein, 0.1 uM dsDNA library, 30 min, room temperature, amylose pull-down; high values mean tight binding
Details: protein: recombinant; tags: His6-MBP; chain copies: 2; dsDNA, one strand shown
Procedure, shortened: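 Amylose resin was used to capture complexes formed during 30 min at room temperature in Tris pH 7.5 buffer with NaCl and MgCl2 between 0.4 µM His6-MBP-tagged mouse FoxP3 or FoxP1 fragment lacking the N-terminus, expressed in E. coli, and 0.1 µM Klenow-filled double-stranded degenerate DNA library. After three washes, the DNA was released with proteinase K, barcoded by PCR and sequenced on Illumina. Binding is pooled-replicate reads-per-million enrichment, pull-down over input.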

Going from “GATGATTGTTCTCCCAGCTGATGAATTCCAGGCCTCGAGTAAACAAATTTTCCTAATCTTTCTGTTCAAGCGCCATCTAC” to “GATGATTGTTCTCCCAGCTGATGAATTCACTGGGTCGAGTAAACAAATTTTCCTAATCTTTCTGTTCAAGCGCCATCTAC”, the binding signal falls from 0.783 RPM ratio (pull-down/input) to 0.782 RPM ratio (pull-down/input).

First: GATGATTGTTCTCCCAGCTGATGAATTGGGCTGCTCGAGTAAACAAATTTTCCTAATCTTTCTGTTCAAGCGCCATCTAC
Second: GATGATTGTTCTCCCAGCTGATGAATTACGTCTTTCGAGTAAACAAATTTTCCTAATCTTTCTGTTCAAGCGCCATCTAC
The binding signal of the first is lower: 0.761 RPM ratio (pull-down/input) for the first, 1.1 RPM ratio (pull-down/input) for the second.

“GATGATTGTTCTCCCAGCTGATGAATTCGCAATATCGAGTAAACAAATTTTCCTAATCTTTCTGTTCAAGCGCCATCTAC” and “GATGATTGTTCTCCCAGCTGATGAATTTCTGGCATCGAGTAAACAAATTTTCCTAATCTTTCTGTTCAAGCGCCATCTAC” are the same in binding signal: 1.02 RPM ratio (pull-down/input) for the first, 1.02 RPM ratio (pull-down/input) for the second.

Compared with “GATGATTGTTCTCCCAGCTGATGAATTGGACTCGTCGAGTAAACAAATTTTCCTAATCTTTCTGTTCAAGCGCCATCTAC”, “GATGATTGTTCTCCCAGCTGATGAATTCATGCACTCGAGTAAACAAATTTTCCTAATCTTTCTGTTCAAGCGCCATCTAC” is higher in binding signal: 0.753 RPM ratio (pull-down/input) for the first, 1.04 RPM ratio (pull-down/input) for the second.

Going from “GATGATTGTTCTCCCAGCTGATGAATTCTACCAATCGAGTAAACAAATTTTCCTAATCTTTCTGTTCAAGCGCCATCTAC” to “GATGATTGTTCTCCCAGCTGATGAATTCATATAGTCGAGTAAACAAATTTTCCTAATCTTTCTGTTCAAGCGCCATCTAC”, the binding signal falls from 1.14 RPM ratio (pull-down/input) to 0.956 RPM ratio (pull-down/input).

First: GATGATTGTTCTCCCAGCTGATGAATTGGGTAGCTCGAGTAAACAAATTTTCCTAATCTTTCTGTTCAAGCGCCATCTAC
Second: GATGATTGTTCTCCCAGCTGATGAATTGAGAACTTCGAGTAAACAAATTTTCCTAATCTTTCTGTTCAAGCGCCATCTAC
The binding signal of the first is lower: 0.794 RPM ratio (pull-down/input) for the first, 0.853 RPM ratio (pull-down/input) for the second.

Going from “GATGATTGTTCTCCCAGCTGATGAATTATTCTATTCGAGTAAACAAATTTTCCTAATCTTTCTGTTCAAGCGCCATCTAC” to “GATGATTGTTCTCCCAGCTGATGAATTCATGTGGTCGAGTAAACAAATTTTCCTAATCTTTCTGTTCAAGCGCCATCTAC”, the binding signal falls from 0.997 RPM ratio (pull-down/input) to 0.926 RPM ratio (pull-down/input).

Going from “GATGATTGTTCTCCCAGCTGATGAATTGTACCCATCGAGTAAACAAATTTTCCTAATCTTTCTGTTCAAGCGCCATCTAC” to “GATGATTGTTCTCCCAGCTGATGAATTTCTGCAGTCGAGTAAACAAATTTTCCTAATCTTTCTGTTCAAGCGCCATCTAC”, the binding signal falls from 0.989 RPM ratio (pull-down/input) to 0.883 RPM ratio (pull-down/input).

Compared with “GATGATTGTTCTCCCAGCTGATGAATTTTTATAATCGAGTAAACAAATTTTCCTAATCTTTCTGTTCAAGCGCCATCTAC”, “GATGATTGTTCTCCCAGCTGATGAATTATGATTCTCGAGTAAACAAATTTTCCTAATCTTTCTGTTCAAGCGCCATCTAC” is lower in binding signal: 1.3 RPM ratio (pull-down/input) for the first, 0.982 RPM ratio (pull-down/input) for the second.
